Reference: PubChem BioAssay AID602310 (National Center for Advancing Translational Sciences (NCATS), 2012)
The campaign covered roughly 410,000 compounds. About 310 (0.076%) were called active. Inconclusive results, whose numbers are uncertain, are shown with a selection of clear calls. Calls follow the shape of the dose curve; as a rule, active = well fitted curve in the direction sought with a large enough effect; inconclusive = small, poorly fitted or top-dose-only effect; inactive = flat fitted curve, though single readings scatter. Where the call is inconclusive, the potency comes from a doubtful curve fit.

target: DNA dC->dU-editing enzyme APOBEC-3G (Homo sapiens) (UniProt Q9HC16); experiment: qHTS for Inhibitors of Vif-A3G Interactions: qHTS; details: HeLa A3G-eYFP + Vif (tagged APOBEC3G with the HIV-1 protein that degrades it), YFP fluorescence, overnight; series mostly up to 46.1 µM; also: nearly all actives have a fitted effect of over 60% in size
In short: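 HeLa cells stably expressing Vif and C-terminally eYFP-tagged A3G, seeded overnight at 37 deg C, then exposed to compound by pintool overnight at 37 deg C. Rise in yellow fluorescence (Ex 488/Em 500-530, Acumen) marks blocked Vif-driven A3G degradation.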
Potency is read from the fitted curve at half-maximal effect; tags tell the direction and shape of the fitted curve.

Sequence of UniProt Q9HC16 (Q9HC16 whole entry, looked up): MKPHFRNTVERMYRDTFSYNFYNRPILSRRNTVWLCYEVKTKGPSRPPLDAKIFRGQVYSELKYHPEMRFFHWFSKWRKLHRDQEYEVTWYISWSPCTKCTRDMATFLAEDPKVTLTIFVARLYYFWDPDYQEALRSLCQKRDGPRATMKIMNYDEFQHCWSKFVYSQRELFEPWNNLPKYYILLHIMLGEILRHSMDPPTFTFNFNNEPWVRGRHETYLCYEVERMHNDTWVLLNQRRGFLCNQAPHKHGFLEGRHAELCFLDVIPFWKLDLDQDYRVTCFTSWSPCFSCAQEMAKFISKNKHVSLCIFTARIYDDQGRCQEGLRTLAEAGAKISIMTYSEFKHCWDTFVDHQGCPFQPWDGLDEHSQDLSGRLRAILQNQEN

SMILES | Potency
Cc1sc2ncnc(N3CCC(C(=O)N(C)CC(=O)Nc4ccc(Cl)c(C(F)(F)F)c4)CC3)c2c1C | inactive
COc1ccc2[nH]cc(/C=C/c3cc[n+](C)cc3)c2c1 | active: 11.2 µM
CN(Cc1ccccc1)c1ccc(/C=C/c2ccnc3ccccc23)cc1 | inconclusive: 15.8 µM [inhibitor, single point]
O=[N+]([O-])c1ccc(Sc2nnnn2-c2ccccc2)nc1 | inconclusive: 35.5 µM [inhibitor, single point]
CN1CCC(N(C)C(=S)NC(=O)c2cc(-c3cccc(Br)c3)nc3ccccc23)CC1 | inactive
CCc1nnc(NC(=O)CSc2nccn2-c2cc(C)cc(C)c2)s1 | inconclusive: 11.2 µM [inhibitor, partial curve, poor fit]
Cn1ccnc1-c1nc2ccccc2[nH]c1=O | inconclusive: 35.5 µM [inhibitor, single point]
C=CCn1c(SCc2nc3ccccc3c(=O)[nH]2)nc2ccccc2c1=O | inconclusive: 14.1 µM [inhibitor, single point]
COc1ccc(C[C@@H]2CN3C(=NC[C@@H]3Cc3ccc(O)cc3)N2C[C@H](C)NC(=O)CCC2CCCCC2)cc1 | inactive
Cc1cc(C)c2cc(CN(Cc3ccco3)C(=O)NCc3ccccc3)c(=O)[nH]c2c1 | inactive
CC(=O)Nc1ccc(Sc2ccccc2C(=O)O)cn1 | inactive
COc1ccc(OC)c(NS(=O)(=O)c2ccc(N3CCCC3=O)cc2)c1 | inconclusive: 0.316 µM [inhibitor, full curve, poor fit]
COc1cc(C(=O)/C=C/Nc2ccc(NC(C)=O)cc2)cc(OC)c1OC | inconclusive: 22.4 µM [inhibitor, partial curve, poor fit]
CCOC(=O)c1ccc(NC(=O)Cn2cc(C(=O)c3ccc(Cl)cc3)c(=O)c3ccc(C)nc32)cc1 | inconclusive: 17.8 µM [inhibitor, single point]
O=C(CCNS(=O)(=O)c1ccc2c(c1)CCN2C(=O)C1CC1)Nc1ccc(F)cc1F | inactive
CC[C@@]1(O)C(=O)OCc2c1cc1n(c2=O)Cc2cc3c(N)cccc3nc2-1 | inactive
Cc1ccc(/C=C2/NC(=O)N(Cc3ccccc3F)C2=O)s1 | inconclusive: 5.62 µM [inhibitor, single point]
CNC(=O)N(C1=NCC(C)(C)S1)c1ccc(F)c(Cl)c1 | inconclusive: 7.08 µM [inhibitor, partial curve, poor fit]
Cc1ccc(S(=O)(=O)Nc2cc(Cl)c(O)c3ncccc23)cc1 | inconclusive: 11.2 µM [inhibitor, partial curve]
O=C(N/N=C/c1ccc(O)cc1O)c1ccc(NC(=O)C2CCCCC2)cc1 | inconclusive: 25.1 µM [inhibitor, single point]
COc1cccc(C(=O)N/N=C/c2ccc(Oc3ccc([N+](=O)[O-])cn3)c(OC)c2)c1 | inconclusive: 15.8 µM [inhibitor, single point]
Cc1[nH]n(C)c(=O)c1C(=O)c1c(-c2c(Cl)cccc2Cl)noc1C | inconclusive: 25.1 µM [inhibitor, single point]

SMILES | Potency
COc1ccccc1CNC(=O)C/C(C)=N/NC(=O)COc1ccc(C)cc1Br | inconclusive: 11.2 µM [inhibitor, partial curve]
NC(=S)N/N=C\c1ccccc1OCc1ccccc1 | inactive
CCCCOc1ccc(CSC(=N)N)cc1[N+](=O)[O-] | inconclusive: 20 µM [inhibitor, partial curve, poor fit]
CC[N+](C)(C(=O)O)/C(=C\c1ccccc1)c1ccnc2ccccc12 (stereo not drawn) | active: 11.2 µM
COc1ccc(NC(=S)NC(=NS(=O)(=O)c2ccc(Cl)cc2)c2ccccc2)cc1 | inconclusive: 22.4 µM [inhibitor, single point]
Cc1ccccc1NC(=O)CN1C(=O)S/C(=C\c2ccc(-c3cc(C(=O)O)ccc3C)o2)C1=O | inactive
CCn1c(C(=O)N2CCCC(C(=O)N3CCN(c4cc(C)ccc4C)CC3)C2)cc2sccc21 (stereo not drawn) | inconclusive: 2.82 µM [inhibitor, partial curve, poor fit]
COc1cc(OC)c(OC)cc1CNc1sc2c(c1C(=O)Nc1ccccc1OC)CCC2 | inconclusive: 15.8 µM [inhibitor, single point]
N#CC1=C(N)C(C#N)(C#N)[C@H](c2cccnc2)[C@H]2CN(C(=O)OCc3ccccc3)CC=C12 | inconclusive: 25.1 µM [inhibitor, single point]
N#Cc1c(-c2ccc(Cl)cc2)n(O)c2ccccc12 | inactive
CCOC(=O)CNCCC(=O)c1ccc(Br)cc1 | inconclusive: 35.5 µM [inhibitor, single point]
COc1ccc(NC(=O)C(Cl)=C(Cl)Cl)cn1 | inconclusive: 20 µM [inhibitor, single point]
CNC(=O)c1c(NC(=O)c2ccc(S(=O)(=O)N3CCCc4ccccc43)cc2)sc2c1CCN(C)C2 | inactive
CC(=O)Nc1cccc(NC(=O)c2cccc(-c3ccc(O)cc3)c2)c1 | inconclusive: 22.4 µM [inhibitor, single point]
Oc1ccccc1CNc1ccc(Br)cn1 | inactive
CC1(C)CCN2CCC(C)(C)c3c(O)ccc1c32 | inconclusive: 15.8 µM [inhibitor, partial curve, poor fit]
O=C(NCc1nnnn1-c1ccc(F)cc1)c1ccc([N+](=O)[O-])o1 | inconclusive: 22.4 µM [inhibitor, single point]
COc1ccc(-c2cc(NC=O)c3ncc(-c4ccc(OC)c(OC)c4)n3c2)cc1 | inconclusive: 1.12 µM [inhibitor, full curve, poor fit]
CNC(=O)c1c[nH]c2ccc(S(=O)(=O)Nc3cccc(Cl)c3C)cc2c1=O | inconclusive: 25.1 µM [inhibitor, single point]
COc1ccc(/C(C)=C2\SC(=S)N(CCC(=O)O)C2=O)cc1 | inactive
CC1(C)C2CCC1(C)C(NC(=O)COC(=O)c1ccc(S(C)(=O)=O)c([N+](=O)[O-])c1)C2 (stereo not drawn) | inconclusive: 31.6 µM [inhibitor, single point]
